Some of the results follow.
The sequences below were run against T1, OsWOX13 (Oryza sativa, UniProt Q5QMM3 1-267) (assay: protein-binding microarray (RPBM); PBS, 2% BSA, 51.3 ng/ul salmon testes DNA, 50 uM zinc acetate, 200 nM TF, 25 C, 1 h; high values mean tight binding). Details: protein: recombinant; tags: N-terminal polyhistidine and DsRed monomer fusion (pET32a); label: CyDye5-dUTP incorporated in the synthesized complementary strand; 3' TTTTT single-stranded linker to array surface; dsDNA, one strand shown.
T1 sequence: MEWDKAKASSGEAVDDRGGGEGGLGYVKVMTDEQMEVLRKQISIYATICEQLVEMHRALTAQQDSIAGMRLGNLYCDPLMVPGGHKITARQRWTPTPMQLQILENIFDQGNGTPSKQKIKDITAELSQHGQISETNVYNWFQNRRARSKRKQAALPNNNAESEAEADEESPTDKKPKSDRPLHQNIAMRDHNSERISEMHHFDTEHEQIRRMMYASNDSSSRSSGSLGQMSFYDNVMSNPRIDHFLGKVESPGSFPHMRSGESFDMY
How it was run: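 Transcription factors, each fused N-terminally to a polyhistidine tag and DsRed, were expressed in E. coli BL21-CodonPlus and purified on Ni–NTA. A custom Agilent array was made double-stranded by primer extension with Cy5-dUTP and blocked with 2% BSA. It was incubated with 200 nM protein in PBS, 2% BSA, salmon testes DNA and 50 µM zinc acetate at 25 °C for 1 h, then washed. The binding signal is per-feature fluorescence intensity (arbitrary units) read on an Axon 4000B scanner.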
For “CTTGTGTTATTCTTATGTAATTGTTTCTATGCTCATAAGACGGAGTCACCTAGTGCAG”, the binding signal was 5400 fluorescence intensity (a.u.). In the case of “CATTATTAATTAAATTGGGAAAATATATTGAAACAGAGGGCGGAGTCACCTAGTGCAG”, the binding signal is reported as 40800 fluorescence intensity (a.u.). In the case of “GACAATAATATTGTAAATGATTTGTAATTGCTAGTGAGTGCGGAGTCACCTAGTGCAG”, the binding signal is reported as 25700 fluorescence intensity (a.u.). For “CATTATAGATTAATACATTTTGGGATGGAGGGAGTACTCACGGAGTCACCTAGTGCAG”, the binding signal was 3200 fluorescence intensity (a.u.). For “GTCAATAATCATTTTCTCCACATTCAAGCGCACGGCGAGTCGGAGTCACCTAGTGCAG”, the binding signal was 3860 fluorescence intensity (a.u.). “GGTTGATTAGGGTAGCACTAGCTAGCTGCTGCATTGTTTACGGAGTCACCTAGTGCAG” was tested, and the binding signal was 15100 fluorescence intensity (a.u.). With “TTTTCCTCATCAAATTGGCTAAATTTTAGTTTGGCGAGTACGGAGTCACCTAGTGCAG” the binding signal was 5300 fluorescence intensity (a.u.). With “GCCTGATTAATTGATTAATTCTCCAGCTGCATCACATTGACGGAGTCACCTAGTGCAG” the binding signal was 63700 fluorescence intensity (a.u.). In the case of “GAAGATGATTGTTTTCGCGTAAGTGGGGTATCTCTGCTAGCGGAGTCACCTAGTGCAG”, the binding signal is reported as 25000 fluorescence intensity (a.u.). With “TTTTACACCTCTCCTAAAATTGACAAGTAACACAAACATGCGGAGTCACCTAGTGCAG” the binding signal was 3400 fluorescence intensity (a.u.). With “TGCTAAAATTTTGACAATATTGTTAACTTGCTCTAGTTTACGGAGTCACCTAGTGCAG” the binding signal was 6920 fluorescence intensity (a.u.). In the case of “GGCCCACATTAAGATTAGATTGTGCTACACATTGGTGCTACGGAGTCACCTAGTGCAG”, the binding signal is reported as 4510 fluorescence intensity (a.u.). For “ACTTCAATTACATGCACGGGGTTGACGAGAGACGACGCCACGGAGTCACCTAGTGCAG”, the binding signal was 19300 fluorescence intensity (a.u.). In the case of “AGACTTAATTGTAACTGTGTACTACTACGAGCTTAATCAGCGGAGTCACCTAGTGCAG”, the binding signal is reported as 28400 fluorescence intensity (a.u.). “TGATATAATTTTCACTTCTGTGTATGTACATGGTCTTGTTCGGAGTCACCTAGTGCAG” was tested, and the binding signal was 3580 fluorescence intensity (a.u.). For “GTGATGGAAAATTGGGAGTTTGGGAGAAGTTTGATGTGAACGGAGTCACCTAGTGCAG”, the binding signal was 4620 fluorescence intensity (a.u.). For “TTACTCTTAATTAAAATGAAACCGAAGCGAGTACTATTTACGGAGTCACCTAGTGCAG”, the binding signal was 3900 fluorescence intensity (a.u.). “CGGATATAAATTTGAAAGAAAATTGAGTTCGACTTCGTGACGGAGTCACCTAGTGCAG” was tested, and the binding signal was 13000 fluorescence intensity (a.u.). “CTGAGATGGAAAATCACACCCAATTCATTTGGCTTGTTGTCGGAGTCACCTAGTGCAG” was tested, and the binding signal was 4960 fluorescence intensity (a.u.). In the case of “CAATAATTTACTTTGGTATCCTTGGCTACTTCAGGTTGTTCGGAGTCACCTAGTGCAG”, the binding signal is reported as 10300 fluorescence intensity (a.u.). With “TTTCCAATAATAATTTGATAAAAGTATTTCTTTTGTCAAACGGAGTCACCTAGTGCAG” the binding signal was 3640 fluorescence intensity (a.u.). In the case of “CGGGTATTATTTGACTGATAAACCCTGATGCTTCATTATTCGGAGTCACCTAGTGCAG”, the binding signal is reported as 3950 fluorescence intensity (a.u.). With “TTCACAAAATAAATCATGTAAATTAACATTAAGAAGAAATCGGAGTCACCTAGTGCAG” the binding signal was 4900 fluorescence intensity (a.u.). In the case of “TGTTTAATACTCTAAATTAGCGTACAAACATCCTATGTAACGGAGTCACCTAGTGCAG”, the binding signal is reported as 3220 fluorescence intensity (a.u.). In the case of “TATGATTATCCTCAGAGCCGTTTGGATCGATGGGTAGATTCGGAGTCACCTAGTGCAG”, the binding signal is reported as 11500 fluorescence intensity (a.u.). With “TACTTTAATGAATTATTCCGTAAATAAGATTACGTCTAAGCGGAGTCACCTAGTGCAG” the binding signal was 3520 fluorescence intensity (a.u.). For “ATTCCATTACTATGATTTAACTGAGGATTCTATCACTGAACGGAGTCACCTAGTGCAG”, the binding signal was 12600 fluorescence intensity (a.u.). For “GTTAATTACGGGACTGTTCCTGCTAACGTCCTCCGTCCGACGGAGTCACCTAGTGCAG”, the binding signal was 15900 fluorescence intensity (a.u.). “GATTGATCAACTGATAGCTTCCTATTTGTCCTCCTCTGCACGGAGTCACCTAGTGCAG” was tested, and the binding signal was 7240 fluorescence intensity (a.u.). “GTATTAATGGGGATCACAGGATTGCAGTAACAGCAGCAGGCGGAGTCACCTAGTGCAG” was tested, and the binding signal was 5260 fluorescence intensity (a.u.). In the case of “GAGTGATGATGACTAGTCTACTGGAGTAGTACTAGTGGCCCGGAGTCACCTAGTGCAG”, the binding signal is reported as 5600 fluorescence intensity (a.u.). For “CAAATAATGGAAGAAAATTTTAATGCTTTTCCATGCTGAACGGAGTCACCTAGTGCAG”, the binding signal was 5380 fluorescence intensity (a.u.). “TCCTTTGATTTTGTGTTTCGTGCATCAAAGTGTCGCAATCCGGAGTCACCTAGTGCAG” was tested, and the binding signal was 8350 fluorescence intensity (a.u.). In the case of “CAATTATTTACAATGTAATTATACTACATTTATTCTGTAGCGGAGTCACCTAGTGCAG”, the binding signal is reported as 12900 fluorescence intensity (a.u.). In the case of “GCCACAACAAAATGGCATAAATTAGTAGGCTACACATGTTCGGAGTCACCTAGTGCAG”, the binding signal is reported as 3220 fluorescence intensity (a.u.). “TGTTTAACTGACAGTATTAATACGAGTTATTTAATGCATACGGAGTCACCTAGTGCAG” was tested, and the binding signal was 11200 fluorescence intensity (a.u.). For “TCTAATTAAGTAAACCACCACCCACTCTCGTCGTACGTACCGGAGTCACCTAGTGCAG”, the binding signal was 12100 fluorescence intensity (a.u.). With “TGACCTAATTAATTATTTAACTAATAATAATTAGTGATTACGGAGTCACCTAGTGCAG” the binding signal was 44500 fluorescence intensity (a.u.). With “TTTGAAGTAATTCATGATTGGTGTCTTTTATTTCTATAATCGGAGTCACCTAGTGCAG” the binding signal was 4140 fluorescence intensity (a.u.). For “AAACCATATCACGCCGCAATTAATATAAAATCATAGTAGGCGGAGTCACCTAGTGCAG”, the binding signal was 4090 fluorescence intensity (a.u.). “ATATATATATATATATATATATATCTACGGTGATCATCCACGGAGTCACCTAGTGCAG” was tested, and the binding signal was 17400 fluorescence intensity (a.u.). “AACAACCAACTTTTGACAGACATAGATTAGAAGTTGTTTTCGGAGTCACCTAGTGCAG” was tested, and the binding signal was 5190 fluorescence intensity (a.u.).

— paper PMC7819943, “Rice protein-binding microarrays: a tool to detect cis-acting elements near promoter regions in rice”
